In the antibiotic and cytotoxicity screens of Wong et al. (2023):
Some of the results follow.

What was measured:
HSkMC = human skeletal muscle cells; assay: cytotoxicity call (relative viability < 0.9); conditions: 10 µM
HepG2 = assay: cytotoxicity call (relative viability < 0.9); conditions: 10 µM
S. aureus RN4220 = assay: growth inhibition call (relative growth <= 0.2); conditions: 50 µM

SMILES: CN(C)c1n[nH]c(=O)[nH]c1=O
- cytotoxicity call (HSkMC): inactive
- cytotoxicity call (HepG2): inactive
- growth inhibition call (S. aureus RN4220): inactive

SMILES: C[C@H]1CN([C@@H](C)CO)C(=O)c2ccccc2-c2ccccc2CO[C@@H]1CN(C)C(=O)Nc1ccc(-c2ccccc2)cc1
- cytotoxicity call (HSkMC): inactive
- cytotoxicity call (HepG2): inactive
- growth inhibition call (S. aureus RN4220): inactive

SMILES: C[C@@H]1CN([C@@H](C)CO)S(=O)(=O)c2ccc(C#Cc3ccc(F)cc3)cc2O[C@@H]1CN(C)S(=O)(=O)c1cn(C)cn1
- cytotoxicity call (HSkMC): inactive
- cytotoxicity call (HepG2): inactive
- growth inhibition call (S. aureus RN4220): inactive

SMILES: COc1ccc(S(=O)(=O)N(C)C[C@H]2Oc3cc(Br)ccc3S(=O)(=O)N([C@H](C)CO)C[C@H]2C)cc1
- cytotoxicity call (HSkMC): inactive
- cytotoxicity call (HepG2): inactive
- growth inhibition call (S. aureus RN4220): inactive

SMILES: O=C(C[C@H]1C[C@@H]2c3cc(NC(=O)NC4CCCC4)ccc3O[C@@H]2[C@H](CO)O1)NCc1ccc2c(c1)OCO2
- cytotoxicity call (HSkMC): inactive
- cytotoxicity call (HepG2): inactive
- growth inhibition call (S. aureus RN4220): inactive

SMILES: Cc1cc(C(=O)Nc2cccc3c2O[C@@H](CN(C)Cc2ccc(C(=O)O)cc2)[C@@H](C)CN([C@H](C)CO)C3=O)n(C)n1
- cytotoxicity call (HSkMC): inactive
- cytotoxicity call (HepG2): inactive
- growth inhibition call (S. aureus RN4220): inactive

SMILES: C[C@H]1CN([C@@H](C)CO)C(=O)Cc2cc(NC(=O)c3ccncc3)ccc2O[C@H]1CN(C)Cc1ccc(C(=O)O)cc1
- cytotoxicity call (HSkMC): inactive
- cytotoxicity call (HepG2): inactive
- growth inhibition call (S. aureus RN4220): inactive

SMILES: C[C@@H]1CN([C@@H](C)CO)C(=O)c2cc(NC(=O)Nc3ccccc3)ccc2O[C@@H](C)CCCCO[C@@H]1CN(C)CC1CCCCC1
- cytotoxicity call (HSkMC): active
- cytotoxicity call (HepG2): active
- growth inhibition call (S. aureus RN4220): inactive

SMILES: CC(C)NC(=O)Nc1ccc2c(c1)C(=O)N([C@@H](C)CO)C[C@H](C)[C@@H](CN(C)Cc1ccc(-c3ccccc3)cc1)O2
- cytotoxicity call (HSkMC): inactive
- cytotoxicity call (HepG2): inactive
- growth inhibition call (S. aureus RN4220): inactive

SMILES: C[C@H]1CN([C@@H](C)CO)C(=O)c2cc(NC(=O)c3ccncc3)ccc2O[C@@H]1CN(C)S(=O)(=O)c1cccs1
- cytotoxicity call (HSkMC): inactive
- cytotoxicity call (HepG2): inactive
- growth inhibition call (S. aureus RN4220): inactive

SMILES: C[C@H]1CN([C@@H](C)CO)C(=O)c2cc(C#CCN(C)C)cnc2O[C@@H]1CN(C)C(=O)Nc1cccc(F)c1
- cytotoxicity call (HSkMC): inactive
- cytotoxicity call (HepG2): inactive
- growth inhibition call (S. aureus RN4220): inactive

SMILES: C=CC1CN2CCC1CC2C(O)c1ccnc2ccc(OC)cc12.O=C(O)C(O)C(O)C(O)C(O)CO (stereo not given)
- cytotoxicity call (HSkMC): inactive
- cytotoxicity call (HepG2): inactive
- growth inhibition call (S. aureus RN4220): inactive

SMILES: C[C@@H]1CN([C@H](C)CO)C(=O)c2cc(NC(=O)Nc3ccc(C(F)(F)F)cc3)ccc2O[C@@H](C)CCCCO[C@H]1CN(C)S(=O)(=O)c1ccc(Cl)cc1
- cytotoxicity call (HSkMC): inactive
- cytotoxicity call (HepG2): inactive
- growth inhibition call (S. aureus RN4220): inactive

SMILES: Cl.NC(=O)CCC(N)C(=O)O (stereo not given)
- cytotoxicity call (HSkMC): inactive
- cytotoxicity call (HepG2): inactive
- growth inhibition call (S. aureus RN4220): inactive

SMILES: COC(=O)NC(C(=O)NC(Cc1ccccc1)C(O)CN(Cc1ccc(-c2ccccn2)cc1)NC(=O)C(NC(=O)OC)C(C)(C)C)C(C)(C)C.O=S(=O)(O)O (stereo not given)
- cytotoxicity call (HSkMC): inactive
- cytotoxicity call (HepG2): inactive
- growth inhibition call (S. aureus RN4220): inactive
